Measurements as given in PubChem BioAssay AID652104 (National Center for Advancing Translational Sciences (NCATS), 2013).
Out of some 410,000 compounds screened, about 7,200 (1.8%) were called active. Inconclusive means that the source gave no clear call. Such entries were picked first, then a sample of the others. The call rests on the fitted dose curve; in most records, active means well fitted activation curve with a large enough effect; inconclusive means small, poorly fitted or top-dose-only effect, or another doubt; inactive means no such curve, though single readings can be large or run the other way. A potency beside an inconclusive call is a rough fit, not a confirmed value.

Test: qHTS of TDP-43 Inhibitors; further: nearly all actives have a fitted effect of over 50% in size; on growth rescue (activation): % of control where 0% means no effect
Conditions: TDP-43 expressing yeast growth rescue, BacTiter-Glo, 24 h; growth rescue (activation): at 46.1 µM (top of the series) unless noted
Method in brief: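 Readout is BacTiter-Glo luminescence of cell growth, so inhibitors register as activators. TDP-43-expressing yeast at OD600=0.02 in galactose medium, after raffinose pregrowth to mid-log, were incubated with compound for 24 hr at 30 deg C.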
Potency means the concentration at half of the fitted maximal effect; tags describe the fitted curve by direction and shape.

Compound	Potency	growth rescue (activation)
O=C1ON=C(c2ccccc2)/C1=C/c1ccc(-c2ccccc2[N+](=O)[O-])o1	inconclusive: 20 µM [activator, single point]	–
Brc1ccc(-c2nnc3n2C2(CCCC2)Cc2ccccc2-3)o1	inconclusive: 22.4 µM [activator, single point]	–
NC1=C(Cl)C(=O)c2ccccc2C1=O	–	inconclusive: -91.3% [activator]
CSc1nnc2ccc(-c3ccccn3)nn12	inactive	–
O=C(Nc1ccccc1Cl)c1ccccc1	inconclusive: 39.8 µM [activator, partial curve, poor fit]	–
COC(=O)c1ccc(COc2ccc(C(=O)c3ccccc3)cc2)o1	active: 11.2 µM	–
c1ccn(-c2ncnc3sc4c(c23)CCCC4)c1	inconclusive: 15.8 µM [activator, single point]	–
COc1cc(C)ccc1OCc1cc(C(=O)N2CCC(c3ccc(F)cc3)C2)no1 (stereo not given)	inconclusive: 3.16 µM [activator, partial curve]	–
COc1cc(C(CC(=O)Nc2cc(C)ccc2C)N2Cc3ccccc3C2=O)cc(OC)c1OC (stereo not given)	inactive	–
COc1ccc(CCOC(=O)c2cccc(NC(C)=O)c2)cc1	inconclusive: 11.2 µM [activator, single point]	–
S=C(NCc1ccco1)Nc1cccc(Cl)c1Cl	inconclusive: 22.4 µM [activator, single point]	–
CC1(c2nnc(Cc3ccccc3)o2)CC(c2ccc(F)cc2)=NO1 (stereo not given)	inconclusive: 25.1 µM [activator, partial curve, poor fit]	–
Cc1cc(=O)[nH]c(SCc2cccc3ccccc23)n1	inconclusive: 7.94 µM [activator, partial curve]	–
CCC/C=C/c1ccc(CN2C(C)C(=O)N(Cc3cn(Cc4ccco4)nn3)CCS2(=O)=O)cc1 (stereo not given)	inconclusive: 20 µM [activator, single point]	–
COc1ccccc1C(NC(=O)CC(C)C)c1c(O)ccc2ccccc12 (stereo not given)	inconclusive: 7.08 µM [activator, full curve, poor fit]	–
CCCCC1C(=O)N(c2ccccc2)N(c2ccccc2)C1=O	inconclusive: 35.5 µM [activator, single point]	–
COc1ccc(OC)c(NC(=O)c2ccc(-c3cccs3)cc2)c1	inconclusive: 7.08 µM [activator, partial curve]	–
Cc1ccc(Nc2nc3ccccc3c3nnc(C)n23)cc1Cl	inactive	–
CC(C)(C)c1ccc(-c2nc3n(c(=O)c2C#N)CCS3)cc1	active: 20 µM	–
O=C(Cn1cnc2cc([N+](=O)[O-])ccc2c1=O)NCc1ccccc1	–	inactive: -4.72% [at 9.22 µM]
COc1ccc([C@H]2CC(=O)C=C(c3ccnc4ccc(Cl)cc34)C2)cc1	inconclusive: 35.5 µM [activator, single point]	–
CCCc1cc(C(=O)NCCc2ccc(OC)c(OC)c2)no1	inconclusive: 14.1 µM [activator, partial curve]	–
O=C(Nc1cccc(Cc2ccccc2)c1)Nc1ccc2nc([C@@H]3O[C@H](CO)[C@@H](O)[C@H](O)[C@H]3O)[nH]c2c1	inconclusive: 25.1 µM [activator, partial curve]	–
CC(=O)N1CCc2cc(S(=O)(=O)NC(CC(C)C)C(=O)NCCc3ccccc3)ccc21 (stereo not given)	inactive	–

Compound	Potency	growth rescue (activation)
COc1ccc(-c2nnc(SCc3ccccc3F)o2)cc1	active: 11.2 µM	–
Cc1sc2nc(CN3CCOCC3)nc(NS(=O)(=O)c3ccc4c(c3)OCCO4)c2c1C	inconclusive: 8.91 µM [activator, partial curve, poor fit]	–
COc1cc(OC)c(NC(=O)N2CCN3CCCCC3C2)cc1Cl (stereo not given)	inconclusive: 6.31 µM [activator, partial curve, poor fit]	–
CCc1cc(-c2n[nH]c(=S)n2Cc2ccccc2)cs1	inconclusive: 3.55 µM [activator, single point]	–
CCN1CCOC(=O)C1CC(=O)Nc1ccc(C(C)=O)cc1 (stereo not given)	–	inconclusive: -92% [activator]
Cc1ccccc1-c1ccc(CN2C(C)C(=O)N(Cc3cn(Cc4ccco4)nn3)CCS2(=O)=O)cc1 (stereo not given)	active: 35.5 µM	–
O=Nc1c(O)n(Cc2cccc(Cl)c2)c2ccccc12	inconclusive: 14.1 µM [activator, partial curve]	–
NC(=O)C1CCN(C2CC(=O)N(c3ccc(F)c(Cl)c3)C2=O)CC1 (stereo not given)	–	inconclusive: -93.1% [activator]
CC(=O)c1ccc(NC(=O)CSc2nnc(NC(=O)Nc3ccccc3)s2)cc1	inactive	–
CCC(C(=O)Nc1ccccc1F)n1nc(C)c2c(C)n(-c3ccccc3)nc2c1=O (stereo not given)	inconclusive: 3.16 µM [activator, partial curve]	–
Cc1nc(C)c(-c2csc(NCCc3ccccc3)n2)s1	active: 15.8 µM	–
CC(NC(=O)COc1ccccc1)C1COc2ccccc2O1 (stereo not given)	inconclusive: 17.8 µM [activator, partial curve]	–
C=CCc1ccc(OCCCOc2ccc(C)c(C)c2)c(OC)c1	inconclusive: 39.8 µM [activator, partial curve]	–
COC(=O)c1ccc(Cn2c(SCC(=O)NCc3ccccc3)nc3ccccc32)cc1	active: 35.5 µM	–
Cc1cc2c(cc(C(=O)OCC(=O)NCc3cccs3)n2C(C)C)o1	inconclusive: 15.8 µM [activator, single point]	–
Fc1cccc(Nc2ncnc3sccc23)c1	active: 20 µM	–
CC(C)CCNC(=O)C1CCN(S(=O)(=O)c2cccc3nsnc23)CC1	inactive	–
CCc1ccc(-c2cc(C)no2)cc1S(=O)(=O)Nc1ccc(C)cn1	inactive	–
O=S(=O)(c1cnc(Cl)c(Br)c1)N1CCCCCC1	inconclusive: 3.98 µM [activator, full curve, poor fit]	–
CCOc1ccccc1NC(=O)C(=O)CC(=O)c1cccc(OC)c1	inconclusive: 5.62 µM [activator, partial curve]	–
CCOC(=O)c1ccc(NC(=O)CSc2nnc(COc3ccccc3)n2C)cc1	inconclusive: 6.31 µM [activator, single point]	–
CCOC(=O)c1c(C2CC2)csc1NC(C)=O	inconclusive: 10 µM [activator, partial curve]	–
CS(=O)(=O)N1CCN(C2C3CC4CC(C3)CC2C4)CC1 (stereo not given)	inactive	–
N#Cc1c2ccccc2nc2ccccc12	active: 11.2 µM	–

Compound	Potency	growth rescue (activation)
O=C(NC(=S)NCC1COc2ccccc2O1)c1ccccc1 (stereo not given)	inconclusive: 35.5 µM [activator, single point]	–
COc1ccc(S(=O)(=O)Nc2cccc(-c3ccc4nncn4n3)c2)cc1F	inactive	–
O=C(/C=C/c1ccccc1)Nc1cccnc1Oc1ccccc1F	inconclusive: 22.4 µM [activator, single point]	–
O=C(c1cc(-c2ccccc2)on1)N1CCN(C(=O)c2ccco2)CC1	inconclusive: 20 µM [activator, single point]	–
CC(CNC(=O)CCCn1c(=O)c2cccn2c2ccccc21)c1ccccc1 (stereo not given)	inconclusive: 22.4 µM [activator, single point]	–
CCCN(C(=O)COC(=O)CSc1ccc([N+](=O)[O-])cc1)C1CCS(=O)(=O)C1 (stereo not given)	inconclusive: 20 µM [activator, single point]	–
CCN(CC)c1ccc(/C=C(/C#N)c2nc3ccccc3[nH]2)c(OC(C)C)c1	active: 12.6 µM	–
O=C1/C(=C/c2cccc(F)c2)CSc2sccc21	inconclusive: 17.8 µM [activator, single point]	–
Cc1cccc(C(=O)Nc2cccc3cccnc23)c1	inconclusive: 7.94 µM [activator, full curve]	–
O=C(O)c1ccc2c(c1)N(Cc1ccc(F)cc1Cl)C(=O)c1ccccc1S2	inconclusive: 12.6 µM [activator, partial curve]	–
CC1CN(Cc2nc3c(c(=O)[nH]c(=O)n3C)n2CC(N)=O)CC(C)O1 (stereo not given)	inconclusive: 7.08 µM [activator, full curve, poor fit]	–
COc1ccc(CCNC(=O)c2cc(S(=O)(=O)N3CCCC(C)C3)cn2C)cc1OC (stereo not given)	inconclusive: 0.355 µM [activator, full curve, poor fit]	–
COc1ccc(-c2nc3c(C)cc(Br)cn3c2CC(C)(C)C)cc1OC	inconclusive: 0.562 µM [activator, full curve, poor fit]	–
CCN(CC)c1nc(-c2ccccc2Cl)c2cc(Br)ccc2n1	inactive	–
O=C(Cn1nc(Cl)nc1Cl)c1ccc2c(c1)OCCO2	active: 11.2 µM	–
CCOC(=O)c1ccc(NC(=O)CSc2nccn2Cc2ccc(OC)cc2)cc1	inconclusive: 4.47 µM [activator, full curve, poor fit]	–
COC(=O)c1cc(NC(=O)c2ccc3c(c2)N(Cc2cccc(Cl)c2)C(=O)c2ccccc2S3=O)cc(C(=O)OC)c1 (stereo not given)	inactive	–
CCCCCN1C(C(=O)c2ccccc2)=C(NC(C)=O)c2ccccc2S1(=O)=O	inconclusive: 3.98 µM [activator, full curve, poor fit]	–
CCOc1ccccc1NC(=O)c1cnc(N2CCOCC2)c2ccccc12	inconclusive: 35.5 µM [activator, single point]	–
CCN1CCCC1Cn1cnc2c([nH]c3ccc(Cl)cc32)c1=O (stereo not given)	inactive	–
CCOC(=O)N=Nc1c2ccccc2c2nc3no[nH]c3nc12	–	inconclusive: -91.4% [activator] [at 9.22 µM]
COc1cccc(CNc2nc3c(-c4cccc(C)c4)nnn3c3ccccc23)c1	inactive	–
